Data from PubChem BioAssay (NCATS).
Inconclusive results, whose numbers are uncertain, are shown with a selection of clear calls. No potency is given beside an inconclusive call; the fits are too rough. Calls of active or inactive are those of the source. The call rests on the fitted dose curve; in most records, active means well fitted curve in the direction sought with a large enough effect; inconclusive means small, poorly fitted or top-dose-only effect, or another doubt; inactive means no such curve, though single readings can be large or run the other way.

Target: Calcium and integrin-binding protein 1 (Homo sapiens) (UniProt Q99828)
Experiment: Validation qHTS for Identification of Calcium Integrin Binding protein 1 (CIB1) Competitor (AID 1508618)
Conditions: CIB1-GST / FITC-alphaIIb peptide fluorescence polarization; series mostly up to 114 µM
Excerpt: Assay Provider: Ulhas P. Naik, PhD
Sidney Kimmel Medical College
Thomas Jefferson University, Philadelphia, PA
Primary function of platelets is to maintain hemostasis. At the site of vascular injury, platelets adhere to adhesive proteins such as collagen and von Willebrand factor. Adherent platelets are activated and generate soluble platelet agonists such as thrombin, ADP and thromboxane A2. Following exposure of circulating platelets to these agonists, results in platelet shape change, granule secretion and activation of platelet integrin alphaIIb-beta3. Ligand binding to activated integrin alphaIIb-beta3 triggers outside-in signaling, leading to platelet aggregation, stabilization of platelet plug, and clot retraction. Upon atherosclerotic plaque rupture also causes platelet plug formation, which underlies a number of cardiovascular diseases such as myocardial infraction and stroke. A number of anti-platelet drugs such as aspirin, clopidogrel, prasugrel, vorapaxar, and eptifibatide are currently available to prevent the thrombotic complications. However, these anti-platelet agents have several limitations including inherent variability in individual responses, developing resistance, and serious bleeding side effects. For these reasons they are not suitable for long-term protection. Based on the experiences with current anti-platelet drugs, it appears that the most useful therapeutic approach is to intersect the secondary responses such as integrin outside-in signaling or recruitment of platelets by TxA2 and secreted ADP. Compounds, which can largely preserve the primary hemostatic function of platelets but inhibit secondary response will be most desired therapeutic agents for treatment of cardiovascular disease.
CIB1 is a calcium integrin binding protein, which specifically interact with the alphaIIb subunit of integrin alphaIIb-beta3. Binding of CIB1 to alphaIIb regulates the outside-in signaling in platelets, which is needed for thrombus stabilization and thrombus growth. […] Therefore, we propose that discovery of a small molecule that can prevent the association of CIB1 and alphaIIb-beta3 will be a potential anti-platelet agent that can block the thrombus formation without undue effect on hemostasis.
To develop fluorescence polarization (FP) assay using fluorescently labeled alphaIIb peptide and CIB1 protein. Using FP assay characterize the binding affinity, competitive inhibition, and acceptable Z factor (0.5 to1) in order to perform the HTS to identify small molecule compound that can prevent CIB1 binding to platelet integrin alphaIIbbeta3. This assay is screened against the NCATS LOPAC library to validate the amenability of the assay to qHTS.
[1] Naik MU, Nigam A, Manrai P, et al. CIB1 deficiency results in impaired thrombosis: the potential role of CIB1 in outside-in signaling through integrin alpha IIb beta 3. J Thromb Haemost. 2009;7(11):1906-1914. doi:10.1111/j.1538-7836.2009.03581.
SEQUENCE No. (1, 2, 3, etc.); […] (e.g., Cells, Incubation, Reagent, etc.); VALUE and DESCRIPTION.
1; Reagent; 3 uL; Protein or buffer (4/3x)
2; Compound; 46 nL; Control inhibitor / compound library
3; Time; 15 min; Room temperature incubation
4; Reagent; 1 uL; Fluorescent labeled peptide (4x)
5; Time; 1000 rpm; Centrifuge
6; Time; 15 min; Room temperature incubation
7; Detection; Ex 480/ Em 540; ViewLux Fluorescence Read
NOTES (numbers refer to sequence above)
1; Protein Mixture: C1B1-GST (final concentrations of 1 uM). Buffer composition: 5 mM HEPES pH 7.4, 125 mM NaCl, 5 mM CaCl2, 0.01% Tween20.
2; Control Inhibitor: unlabeled peptide (final concentration range 17.4 nM to 572 uM). Compound Library final concentration range 18.3 nM to 114 uM.
3; Room temperature incubation.
4; Fluorescent Labeled Peptide: FITC-aIIb (final concentration of 100 nM). Sequence of alphaIIb peptide: Acetyl-[…]-FITC (purity is 95.83%).
6; Room temperature incubation.
[…]
Potency means the concentration at half of the fitted maximal effect; tags describe the fitted curve by direction and shape.

Sequence of UniProt Q99828 (Q99828 whole entry, looked up): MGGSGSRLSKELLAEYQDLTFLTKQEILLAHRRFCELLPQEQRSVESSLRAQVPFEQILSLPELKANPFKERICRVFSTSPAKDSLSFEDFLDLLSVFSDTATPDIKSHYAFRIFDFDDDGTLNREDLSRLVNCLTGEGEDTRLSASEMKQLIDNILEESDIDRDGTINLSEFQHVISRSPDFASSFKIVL

| SMILES | Potency |
| --- | --- |
| NC(Cc1cc(O)c(O)cc1O)C(=O)O (stereo unspecified) | active: 35.5 µM |
| COc1ccc2[nH]c3c(c2c1)CCNC3 | inactive |
| C[C@@H]1O[C@@H](O[C@H]2C[C@@H](O)[C@]3(CO)[C@@H]4C(CC[C@]3(O)C2)[C@@]2(O)CC[C@H]([C@@H]3COC(=O)C3)[C@@]2(C)C[C@H]4O)[C@H](O)[C@H](O)[C@H]1O (stereo partly specified) | inactive |
| CCCN(CCC)[C@@H]1CCc2ccc(O)cc2C1 | inactive |
| C[N+]1(C)CCOC(O)(c2ccc(-c3ccc(C4(O)C[N+](C)(C)CCO4)cc3)cc2)C1 (stereo unspecified) | inactive |
| Cc1[nH]c2ccc(O)cc2c1CCN | inactive |
| O=[N+]([O-])/C=C/c1ccc2c(c1)OCO2 | inconclusive [inhibitor, partial curve] |
| CC(=O)c1c(O)c(C)c(O)c(Cc2c(O)c3c(c(C(=O)/C=C/c4ccccc4)c2O)OC(C)(C)C=C3)c1O | inconclusive [inhibitor, full curve] |
| CCCN1CCC[C@@H](c2cccc(O)c2)C1 | inactive |
| Ic1ccccc1CNC1C2CCN(CC2)C1C(c1ccccc1)c1ccccc1 (stereo unspecified) | inconclusive [inhibitor, single point] |
| NC(=O)c1cc(N2CC2)c([N+](=O)[O-])cc1[N+](=O)[O-] | inactive |
